One compound from PubChem BioAssay (NCI) can be followed below.

The subject of this assay is HCC-2998 colon. Kind of assay: NCI-60 one-dose screen, 48 h (100 = growth as untreated, 0 = no growth, -100 = all killed).

Where a structure was tested more than once in an assay, its records may differ in their call.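 Compound tested at a single concentration for 48 hours in 96-well plates; a percent growth value below 10 was scored as active.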 The source holds more than one record for some entries. They are shown here; other results are not. There may be further records. This drug was run again and again over the years, at the concentration stated with the values; one value stands for one run. Additions like (4×) say how often a value occurs here.

On to `COc1cccc2c1C(=O)c1c(O)c3c(c(O)c1C2=O)C[C@@](O)(C(=O)CO)C[C@@H]3OC1CC(N)C(O)C(C)O1` (stereo partly specified), for which the growth entry is “inactive: 54.9 (2×), 55.7, 67.4, 60.3, 49.3, 58.2 (2×), 62.9, 63.4, 51.2, 45, 73.3, 61, 60.6, 54.2 (3×), 55.2, 50.3, 51.9, 50.4, 47.1, 49.6, 68.2, 73, 48.5, 50.6, 40.9, 41.6, 42.2, 46.1, 48.4, 51.6, 62.6, 59.3, 57.8, 59.7, 56.5, 60.2, 62.1 (2×), 38.2, 41.7, 35.4, 41.8, 26.7, 18.8, 42.7, 39.5%” (0.25 µM, runs of 2021); “active: -3.4%, 4.87%, -16% and inactive: 47.9, 41.6, 49.4, 21.1, 44.6, 42.3, 53.7, 43.5, 46.9, 48 (2×), 59.1, 35.7, 34.2, 49.6, 76.5, 78.3, 84.1, 75.6, 95.2, 46.5, 47.7, 53, 54.6%” (0.25 µM, runs of 2022); “active: -56, -76.1, -38.1, -72.1, -83.1, -76.7, -86.1, -76.5, -90.1, -96.5, -57, -81, -92.8, -85.6, -85.5, -89.5, -88.8, -79.7%” (25 µM, runs of 1991); “active: -80.4, -84.8, -83, -50.4, -56.6, -96, -62.3, -81.3, -77.5, -83.2 (2×), -75.7, -71.7, -96.2, -91.7, -72.5, -84.4, -95.9 (2×), -82.4, -59.4, -72, -83.4, -95.6, -88.4, -92, -95.1, -91, -88.6 (2×), -100 (4×), -69.1, -85.4, -94.6, -83.9 (2×), -96.3 (3×), -71.1, -78.4, -95.7, -94.2 (3×), -78.6, -96.8 (2×), -88.8, -94.8 (2×), -88.5, -89.5, -91.5, -88.2, -85.5, -81.2, -94.9, -94, -84.9 (2×), -93, -79.8, -87.7, -89.1 (3×), -97.7, -79, -92.4, -92.5, -92.2, -85.7, -92.8 (2×), -83.6, -90.6, -87.5, -73.3, -59.9, -87.3, -98.3 (2×), -80.3, -92.6, -91.2, -82.1, -72.1, -81.4, -98.5, -94.3, -93.3, -95.3, -94.7, -89.7, -98.9, -93.9, -89.8, -97.2 (3×), -94.1, -79.5, -96.9, -84.2, -54.2, -26.3, -78.7, -80.2, -92.9, -84.6, -45.7%” (25 µM, runs of 1992); “active: -87.5, -94.5, -91.6, -70.2, -43.1, -95.8, -93.2, -37.2, -83.6, -97.4, -64.5, -96.2, -95.2, -95.4, -89.6, -15.5, -22.3, -76.5, -82.2, -76, -100, -96.9, -23.9, -62.6, -16.7, -63, -67.8 (2×), -97.5, -70.9, -55.1, -73.8, -13.9, -81.9, -43.9, -65.1, -86.1, -42.8, -65.9, -59.9, -78.9, -49, -92.1, -60.7, -30.4, -99.2%” (25 µM, runs of 1993); “active: -5.8, -26.8, -80, -94.5, -34.4, -61.6, -91, -84.9, -65.6, -83.8, -18.5, -98.5, -79.5, -30.9, -79.6, 2.27, -88.7, -93.3, -81.3, -54.3, -91.3, -53.5, -68.5, -76.9, -85.4, -23, -72.5, -78.9, 2.5, -85.5, -83.4% and inactive: 108%, 28.5%” (25 µM, runs of 1994). The growth result runs as follows: (25 µM, runs of 1995) “active: -24.4, -69.3, -92, -79.8 (2×), -97.5, -85.3, -87.6, -43.2, -65.7, -88.6, -83.9 (2×), -82.6, -88.7 (2×), -66.4, -69.1, -88.1, -56.3 (2×), -100 (2×), -44.2, -74.9, -62.7, -65, -90.1, -78.9, -41.6, -82, -86.3, -94.9, -73.1, -73.5, -95% and inactive: 10.7%”; (25 µM, runs of 1996) “active: -73.2, -93.8, -97.5, -67.7, -82.6, -87.6, -69.1 (2×), -67.9, -89.1, -97, -65.4, -77.3, -88.9, -85.1, -85.6, -75.4 (2×), -93, -94.3, -78.2, -77.7, -88.3, -90.9 (2×), -98.9, -82.8, -81.7, -89.9, -97.1, -99.8, -96.2, -89, -84, -94 (2×), -95.2, -97.7, -53.5, -77.4, -89.5 (2×), -83.3, -55.5, -40.5, -86.9, -83.9, -74.2, -44.2% and inactive: 108%”; (25 µM, runs of 1997) “active: -55 (2×), -86.4, -75.8, -29.2, -74.7, -57.2, -46.9, -62.1, -87.8 (2×), -72.2, -25.7, -16, -79.3, -95.8, -83, -59.3, -77.5, -77.7, -83.3, -36.3, -74, -66.5, -84.1, -18.6, -93.8, 6.8, -21.8, -19.9, -12.1, -33.4% and inactive: 12.2%”; (25 µM, runs of 1998) “active: -42.3, -66.4, -36.2, -28.3, 3.35, -82, -71.5, -36.1, -46.3, -2.53, -54.9, -79.2, -33.7, 2.79, -67.1, -79.9, -77.2, -18.8, -70.7, -14.6, -77.9% and inactive: 29.6%, 11.4%”; (25 µM, runs of 1999) “active: -100 (6×), -93.3, -66.3, -96.9, -81.7, -83.9, 2.83, -41.4, 2.77%”.
